In all, about 220,000 compounds went through this assay and about 10 (0.005%) were called active. The inconclusive results got no clear call from the source; some entries with a clear call stand among them for comparison. No stated cut-off is given here; in the data, active means maximum fold increase above about 1.5; inconclusive means no clear call, values can overlap the other calls; inactive means below that; tested in PC3 cells.
test: compounds boosting herpes simplex virus growth – fold increase, host cell viability (AID 1956); details: HSV replication augmentation in cells; at 25 µM unless noted

SMILES	maximum fold increase
CCOC(=O)c1c2c3c(c(Cl)ccc3[nH]c1=O)C(=O)c1ccccc1-2	inconclusive
C=CCOC(=O)C1=C(C)OC(N)=C(C#N)C1c1ccoc1 (centres undefined)	inconclusive
O=C(c1ccccc1)[C@@H]1[C@@H]2C(=O)N(c3ccc(F)cc3)C(=O)[C@@H]2C2CCCN21 (some centres undefined)	inconclusive
Cc1c(N2C(=O)/C(=C\c3ccc(N(C)C)cc3)N(C)C2=S)c(=O)n(-c2ccccc2)n1C	inconclusive
COc1ccc(Nc2nc3ccc(C)cc3cc2C#N)c(OC)c1	inconclusive
CCOc1ccc(-n2c(SCC(=O)Nc3cc(C)on3)nnc2-c2c[nH]c3ccccc23)cc1	inactive
Cc1ccc(S(=O)(=O)Oc2ccccc2/C=C2/SC(=O)NC2=O)cc1	inconclusive
CCOC(=O)Cn1c2c(c(=N)c3ccccc31)CCC2	inactive
O=C(O)C1CCN(c2ccc(S(=O)(=O)N3CCOCC3)cc2[N+](=O)[O-])CC1	inactive
CC1CCN(Cc2c(O)ccc3c2O/C(=C\c2ccco2)C3=O)CC1	inconclusive
Cc1ccc(NC(=O)CO/N=C/c2ccc(N(C)C)cc2)cc1	inconclusive
O=C(Cn1nnc2c(cnn2-c2ccccc2)c1=O)NCc1cccs1	inconclusive
N#CC1=C(S)N=C(N)C(c2nc(-c3ccccc3)cs2)C12CCCC2 (centres undefined)	inactive
O=C(c1ccc(F)cc1)N1CCN=C1c1ccccc1	inactive
Cc1cc2cc(CNC(=O)c3ccc(Br)o3)ccc2n1C	inconclusive
CCOC(=O)CNc1ccc2c(c1)OCO2	inconclusive
Oc1c(Cl)cc(Cl)cc1/C=N/NC(=S)NC1CC2C=CC1C2 (centres undefined)	inconclusive
CCCCNC(=O)/C(C#N)=c1\s/c(=C\c2ccccc2OC(F)F)c(=O)n1CCCOC	inconclusive
Cc1ccc(S(=O)(=O)N2CC=C(c3c(C)n(C)c4ccccc34)CC2)cc1	inconclusive
C=CCN1C=CC(=C/C=C(/C#N)C(=O)OCC)C=C1	inconclusive
COc1cc(/C=C(\C#N)c2nc3ccccc3s2)ccc1OCC(=O)Nc1ccccc1	inconclusive
NC(=O)COC(=O)c1cc(=O)[nH]c2ccccc12	inactive
O=C(CSc1nnc(COc2cccc3ccccc23)o1)N1c2ccccc2CCc2ccccc21	inconclusive
CC(=O)c1c(C)nc2sc3c(=N)n(N)cnc3c2c1-c1ccc(Cl)cc1	inconclusive
CCOC(=O)c1sc(-c2ccc(C(F)(F)F)cc2)nc1O	inconclusive

SMILES	maximum fold increase
CCN(CC)c1ccc2cc(/C(N)=N/NC(=O)c3cccs3)c(=O)oc2c1	inconclusive
Cc1cc2nc3c(=O)[nH]c(=O)[nH]c3nc2c([N+](=O)[O-])c1N	inconclusive
O=c1cc(CO)oc(C(Nc2ccccn2)c2ccsc2)c1O (centres undefined)	inconclusive
CN1C(=O)/C(=C/C=C2\SCCN2C)OC1=S	inconclusive
Cc1cccc(-n2c(=S)[nH]c3c(oc4ccccc43)c2=O)c1	inactive
c1ccc2c(c1)NCCS2	inconclusive
CCOC(=O)C1(C)NC(c2ccccc2F)C2C(=O)N(c3cccc(C(C)=O)c3)C(=O)C21 (centres undefined)	inactive
COC(=O)C[n+]1cccc2ccccc21	inconclusive
O=C(CSc1nc2ccccc2s1)NNC(=S)Nc1ccc(Cl)cc1	inconclusive
O=C(CSc1nc2ccccc2[nH]1)Nc1c(F)c(F)c(F)c(F)c1F	inactive
CC1=CC(C)(C)Nc2ccc(OC(=O)C(Cc3ccccc3)N3C(=O)C4CCCCC4C3=O)cc21 (centres undefined)	inconclusive
CCN(C(=O)COC(=O)c1c2c(nc3ccccc13)/C(=C/c1ccccc1)CC(C)C2)C1CCS(=O)(=O)C1 (centres undefined)	inactive
COCCCNC(=O)CC(=O)N/N=C\c1ccc(SC)cc1	inconclusive
CC(C)c1nnc(N2C(=O)C(O)=C(C(=O)c3cccs3)C2c2ccccc2)s1 (centres undefined)	inconclusive
O=c1[nH]c(SCc2nc3ccccc3c(=O)n2-c2ccccc2)nc2ccccc12	inactive
CCCNC(=O)C(Sc1ccccc1)c1ccccc1 (centres undefined)	inactive
COC(=O)C1=C(C(=O)OC)[C@@H]2N(Cc3ccccc3)c3ccccc3[C@@]23C[C@@H](C(=O)OC)N(C(=O)NC(C)(C)C)C3=N1	inactive
CCN1CC=C2C(C#N)=C(N)C(C#N)(C#N)[C@H](c3ccoc3)[C@H]2C1	inconclusive
OCCCc1nc2n(n1)C(c1cccs1)C=C(c1ccccc1)N2 (centres undefined)	inconclusive
CN1CCc2c(sc3c2C(=O)NC(c2cn(Cc4ccccc4)c4ccccc24)N3)C1 (centres undefined)	inconclusive
COc1cc(NC(=S)N2CCN(C(c3ccccc3)c3ccccc3)CC2)cc(OC)c1	inconclusive
Cc1ccc2nc(SCC(=O)Nc3ccc4sc(C)nc4c3)c(C#N)cc2c1	inconclusive
O=C(CCN1C(=O)/C(=C\c2cccs2)SC1=S)Nc1ccccn1	inconclusive
CCOC(=O)C1=C(CSc2nc(-c3ccccc3)ccc2C#N)OC(N)=C(C#N)C1c1ccccc1 (centres undefined)	inconclusive
O=c1nc2c(O)cccn2c2c1c(=O)[nH]c1ccccc12	inconclusive

SMILES	maximum fold increase
CCOC(=O)c1cnc(SCc2nc(N)nc(Nc3ccccc3)n2)nc1N	inconclusive
CCc1ccc(CC2S/C(=C(\C#N)C(C)=O)NC2=O)cc1 (centres undefined)	inconclusive
CCCOc1ccc(CC(=O)NNC(=S)Nc2ccccc2)cc1Br	inconclusive
COc1ccc(-n2c(C)cc(/C=C3/SC(=S)N(C)C3=O)c2C)cc1	inconclusive
CCOc1ccc(N2C(=O)S/C(=C\c3ccc(O)c(OC)c3)C2=O)cc1	inconclusive
CCSc1ncc(/C=N/Nc2ccc(F)cc2)n1C	inactive
CN1C(=O)/C(=C/c2coc3ccc(O)cc3c2=O)SC1=S	inconclusive
CC(=O)Nc1nc2n(n1)C(c1ccc(F)cc1)C=C(c1ccccc1)N2 (centres undefined)	inconclusive
Cc1ccc(S(=O)(=O)Oc2ccc(/C=C(/NC(=O)c3ccccc3)C(=O)Nc3ccccc3)cc2)cc1	inconclusive
CN1/C(=C/C=C(C#N)C#N)C(C)(C)c2ccccc21	inconclusive
N#Cc1c(N)sc(=S)c2c1CCN(Cc1ccccc1)C2	inconclusive
COc1ccccc1-n1c(C)c2c(OC)cccc(=O)c2c1C	inconclusive
N=c1c2c(-c3ccccc3)c(-c3ccccc3)n(Cc3ccco3)c2ncn1CCO	inconclusive
Nc1nc(=S)[nH]c2c1C1(CCCC1)Cc1ccccc1-2	inconclusive
Cc1c(Cl)cccc1NC(=S)NCCC(c1ccccc1)c1ccccc1	inconclusive
N#C/C(=C\C1=C(N2CCOCC2)C(=C\c2ccccc2)/CC1)C(=O)Nc1ccccc1F	inconclusive
CCOc1ccc2nc(NC(=O)CCC(=O)c3cccs3)sc2c1	inconclusive
COc1ccccc1N1C(C)=CC(=C(C#N)c2nc3ccccc3s2)C=C1C	inconclusive
COc1ccccc1/C=C/C=C1\Oc2c(ccc(O)c2CN(C)C)C1=O	inconclusive
O=c1/c(=C\c2ccc(O)cc2)sc2n1C(c1ccccc1)C(c1ccccc1)=NN=2 (centres undefined)	inconclusive
Cc1ccc(NC(=O)CSc2nnc(-c3cccnc3)n2-c2ccc(C)cc2)cc1	inconclusive
CCOC(=O)CC(=O)CSc1nc(-c2ccccc2)cc(-c2ccccc2)c1C#N	inconclusive
CCOC(=O)Cc1csc(/N=C/c2c(O)n(-c3ccc(C)cc3C)c(=O)c3ccccc23)n1	inconclusive
CCn1nc(-c2ccccc2)c2nc3ccccc3nc21	inconclusive
COc1ccc(NC(=O)Cn2nc([N+](=O)[O-])c(Cl)c2C)cc1OC	inactive

SMILES	maximum fold increase
CC(C)OCCCNC(=O)c1ccc(Br)cc1	inactive
CC(=O)C1=C(NC(=O)c2ccccc2F)C[C@@H]2[C@H]1C2(C)C	inactive
CCOc1cc(/C=C2/SC(=S)N(CC(=O)O)C2=O)ccc1OC(=O)c1cccs1	inconclusive
COc1cc(OC)c(OC)cc1/C=C1\Oc2cc(OS(C)(=O)=O)ccc2C1=O	inconclusive
Cn1cc(/C=N\O)nc2c(=O)n(-c3ccccc3)c(=O)nc1-2	inconclusive
Cc1sc2nc(COC(=O)c3ccc(N4CCCC4)c([N+](=O)[O-])c3)[nH]c(=O)c2c1C	inconclusive
CC1(C)Cc2ccccc2C2CC(O)C(=O)N21 (centres undefined)	inconclusive
Cc1ccc(F)cc1NC(=O)N1c2ccccc2NC(=O)CC1C (centres undefined)	inconclusive
Cc1cccc(C)c1NC(=O)CSc1nnc(-c2ccco2)c(-c2ccco2)n1	inactive
COc1cccc(N2CC(=O)N(c3cccc(OC)c3)CC2=O)c1	inactive
COc1cc(/C=C/C(=O)C2C(=O)C=C(C)OC2=O)cc(OC)c1O (centres undefined)	inconclusive
CNC(=S)N=Nc1c(O)[nH]c2ccccc12	inactive
O=C(COC(=O)C12CC3CC(CC(C3)C1)C2)Nc1nc2c(F)c(F)c(F)cc2s1	inactive
CCC(=O)Nc1nc(-c2ccccc2)ns1	inactive
Cc1nn(C)cc1N1C(=O)c2cccc3c(N)ccc(c23)C1=O	inconclusive
CCN1CCN(C(c2cccs2)C(C)NC(=O)CC(C)C)CC1 (centres undefined)	inconclusive
CCOC(=O)C1=C(N)Oc2c(oc(CO)cc2=O)C1c1ccc(F)c(F)c1 (centres undefined)	inconclusive
CCOc1ccc2nc(Cl)c(C3CC(c4ccccc4)=NN3C(=O)c3ccco3)cc2c1 (centres undefined)	inactive
CC(=O)Oc1c(Cl)cc(Cl)cc1/C=C/c1ccc2ccccc2n1	inconclusive
Cc1cc[n+](-c2[nH]c(=O)sc2/C=N/NC([S-])=Nc2ccccc2)cc1	inconclusive
Cc1ccc(S(=O)(=O)Nc2ncc(C(F)(F)F)cc2Cl)cc1	inactive
O=C(COC(=O)c1ccc(S(=O)(=O)NCc2ccco2)cc1)Nc1ccc(OC(F)F)cc1	inconclusive
Cc1ccc(-c2ccc(/C=C(\C#N)C(=O)Nc3cc(C)nn3-c3ccccc3)o2)cc1	inconclusive
CC1=C(C#N)C(=O)OC(C)(C)C1	inconclusive

Source: PubChem BioAssay AID1956 (SRMLSC, 2009)
